In PubChem BioAssay AID1468 (National Center for Advancing Translational Sciences (NCATS), 2008):
Screen size: about 280,000 compounds; about 1,100 (0.39%) were called active. This list was built around the results that the source calls inconclusive (neither active nor inactive); the mix of calls is not that of the screen. Calls follow the shape of the dose curve; as a rule, active = well fitted inhibition curve with a large enough effect; inconclusive = small, poorly fitted or top-dose-only effect, or effect the other way; inactive = flat fitted curve, though single readings scatter. Potencies of inconclusive entries are left out as doubtful fits.

target: Microtubule-associated protein tau (Homo sapiens) (UniProt P10636); assay: qHTS for Inhibitors of Tau Fibril Formation, Fluorescence Polarization; conditions: K18 P301L tau heparin fibrillization, Alexa594 FP, 6 h; series mostly up to 57.7 µM; activity, negative = inhibition: at the top concentration; also: nearly all actives have a fitted effect of over 55% in size
Outline: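 Human tau K18 […] P301L fragment, 15 uM unlabeled plus 0.24 uM Alexa 594-labeled tau (final), with compound and 20 uM heparin in 100 mM sodium acetate pH 7; 6 hr at 37 C, then Alexa 594 FP read.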
% is scaled to controls: 0 for no effect and ±100 for the full control effect; potency is read from the fitted curve at half-maximal effect; tags tell the direction and shape of the fitted curve.

Chain of UniProt P10636 (P10636 whole entry, looked up, the tested form may be a part): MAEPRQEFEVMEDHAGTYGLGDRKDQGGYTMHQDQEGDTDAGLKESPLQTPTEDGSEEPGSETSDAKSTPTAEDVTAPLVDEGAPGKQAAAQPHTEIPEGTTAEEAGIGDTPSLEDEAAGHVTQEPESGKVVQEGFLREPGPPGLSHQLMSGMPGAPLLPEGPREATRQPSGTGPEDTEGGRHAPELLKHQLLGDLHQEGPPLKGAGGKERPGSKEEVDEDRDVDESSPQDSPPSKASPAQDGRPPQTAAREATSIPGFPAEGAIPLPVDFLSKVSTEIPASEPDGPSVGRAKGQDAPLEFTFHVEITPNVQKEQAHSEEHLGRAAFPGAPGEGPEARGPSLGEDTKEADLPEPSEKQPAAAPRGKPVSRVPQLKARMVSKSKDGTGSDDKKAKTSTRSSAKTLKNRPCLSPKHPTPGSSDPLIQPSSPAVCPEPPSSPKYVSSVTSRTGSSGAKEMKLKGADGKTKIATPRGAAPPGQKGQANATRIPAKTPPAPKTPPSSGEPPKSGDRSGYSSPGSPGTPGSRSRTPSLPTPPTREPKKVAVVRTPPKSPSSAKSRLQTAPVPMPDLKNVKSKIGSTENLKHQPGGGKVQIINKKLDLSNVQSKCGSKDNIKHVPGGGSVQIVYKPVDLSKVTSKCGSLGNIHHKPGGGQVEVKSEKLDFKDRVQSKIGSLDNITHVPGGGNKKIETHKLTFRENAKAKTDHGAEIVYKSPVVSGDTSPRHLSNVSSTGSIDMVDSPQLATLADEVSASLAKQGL

Row | SMILES | Potency | activity, negative = inhibition
1 | Cc1cc(Nc2cccc(C(F)(F)F)c2)nc2ccc(NC(=O)c3cccc(Cl)c3)cc12 | inconclusive [inhibitor, single point] | 
2 | O=S(=O)(c1cccc2ccccc12)N1CCN(c2ccc(Cl)c(Cl)c2)CC1 | inconclusive [inhibitor, single point] | 
3 | O=C(OCC(=O)c1c[nH]c2ccccc12)c1cc(Br)ccc1O | inconclusive [inhibitor, full curve] | 
4 | CCCCNS(=O)(=O)c1ccc(NC(=O)C2c3ccccc3Oc3ccccc32)cc1 | inconclusive [inhibitor, partial curve] | 
5 | Cc1ccc(Nc2c(-c3ccccn3)nc3cc(C)ccn23)cc1 |  | inactive: 9.45%
6 | O=C(CCCc1nc2ccccc2s1)NNC(=O)CCN1CCN(Cc2ccccc2)CC1 |  | inactive: 1.93%
7 | Cc1ccn2c(=O)cc(COc3cccc(NC(=O)Nc4cccc(Cl)c4C)c3)nc2c1 |  | inactive: -7.21%
8 | NC(=O)CC(NSc1ccccc1[N+](=O)[O-])C(=O)O (configuration not stated) | inconclusive [inhibitor, single point] | 
9 | Cc1cccnc1Sc1c([N+](=O)[O-])ncn1C |  | inactive: 8.74%
10 | N/C(=N\c1nc2ccccc2o1)NC(=O)C(Cc1ccccc1)N1C(=O)c2ccccc2C1=O (configuration not stated) | inconclusive [inhibitor, partial curve] | 
11 | COc1ccc(C)cc1Nc1cc(C)nc(C)n1 |  | inactive: 0.639%
12 | Clc1cccc(N/N=C/c2ccncc2)c1 | inconclusive [activator, partial curve] | 
13 | CC(C)Oc1ccc(C(=O)Nc2c(C(=O)Nc3cccc(F)c3)oc3ccccc23)cc1 | inconclusive [inhibitor, partial curve] | 
14 | CC1S/C(=N/N=C/c2ccco2)N(Cc2ccccc2)C1=O (configuration not stated) |  | inactive: -8.74%
15 | O=C(/C=C/c1ccco1)NCCCN1CCOCC1 |  | inactive: -3.1%
16 | COc1ccccc1NC(=O)Cn1nnc(-c2ccccc2NC(=O)c2cc3ccccc3oc2=O)n1 | inconclusive [inhibitor, single point] | 
17 | Cc1nnc(N2CCOCC2)c2nn(-c3ccccc3)c(C)c12 | inconclusive [inhibitor, single point] | 
18 | Cc1ccc(N2CC(C(=O)Nc3ccc(N(C)C)cc3)CC2=O)cc1Cl (configuration not stated) | inconclusive [activator, partial curve, poor fit] | 
19 | COc1cccc(NC(=O)C(=O)NCCCn2ccnc2)c1 | inconclusive [activator, single point] | 
20 | O=C(NC1CCCC1)c1ccc2c(=O)n(Cc3ccccc3)c(SCc3cccc(F)c3)nc2c1 |  | inactive: -10.1%
21 | Cc1cc(Cl)ccc1OCC(=O)NNC(=O)C1CCCO1 (configuration not stated) | inconclusive [inhibitor, partial curve, poor fit] | 
22 | Cc1cc(C)n(C(C)CC(=O)Nc2ccc(C)c(N(C)C)c2)n1 (configuration not stated) |  | inactive: 2.75%
23 | C=C(C)CSc1nc(-c2ccccc2)cc(-c2ccc(OC)cc2)c1C#N | inconclusive [inhibitor, partial curve, poor fit] | 
24 | COC(=O)c1ccc(NC(=O)CN2C(=O)CC(c3ccccc3)Sc3ccccc32)cc1 (configuration not stated) | inconclusive [inhibitor, single point] | 

Row | SMILES | Potency | activity, negative = inhibition
25 | O=C(CSc1ccccn1)Nc1ccc2c(c1)oc1ccccc12 | inconclusive [inhibitor, partial curve] | 
26 | O=C1c2ccccc2C(=O)C12OC2c1ccc(Cl)cc1 (configuration not stated) | inconclusive [inhibitor, partial curve] | 
27 | O=C1/C(=C/c2ccncc2)SC(=S)N1Cc1ccccc1 |  | inactive: -0.756%
28 | CC(=O)OC1CCC2(C)C(=CCC3C2CCC2(C)C3CC3OC4(CCC(C)CN4)C(C)C32)C1 (configuration not stated) | inconclusive [activator, full curve, poor fit] | 
29 | CCOc1ccc(NC(=O)C(C)Oc2ccccc2C(=O)Nc2ccc(C)c(Cl)c2)cc1 (configuration not stated) | inconclusive [inhibitor, partial curve] | 
30 | NC(=S)NNc1ccc(Cl)c(Cl)c1 | inconclusive [inhibitor, partial curve] | 
31 | Cc1c(C(=O)NCc2ccc(F)cc2)sc2nc3n(c(=O)c12)CCC3 |  | inactive: -13.2%
32 | O=C(Cn1nc(C(F)(F)F)c2c1CCCC2)Nc1ccc(F)c(Cl)c1 | inconclusive [inhibitor, full curve] | 
33 | COc1cc(-c2nc3cnccn3c2Nc2ccc3c(c2)OCCO3)ccc1O |  | inactive: 9.3%
34 | Cc1cc(NC(=O)c2cc(-c3ccccc3C)nc3ccccc23)no1 |  | inactive: 6.36%
35 | COc1ccc(/C=C/C(=O)Nc2ccc(Cl)c(Cl)c2)cc1OC | active: 14.1 µM | 
36 | COc1ccc(OC)c(NC(=O)Cn2cc(C(=O)c3cccs3)c3ccccc32)c1 | inconclusive [inhibitor, single point] | 
37 | COc1ccc2nc(SCC(=O)N3CCCCCC3)c(C#N)cc2c1 |  | inactive: 8.48%
38 | CN(c1ccccc1)S(=O)(=O)c1ccc(C(=O)N2CCc3ccccc3C2)cc1 |  | inactive: -0.134%
39 | CC(C)S(=O)(=O)c1csc(NC(=O)Nc2ccc(Cl)cc2)c1Cl | active: 31.6 µM | 
40 | Cc1ccc2nc(Nc3ccc(Br)cc3)nc(-c3ccccc3)c2c1 | inconclusive [inhibitor, single point] | 
41 | O=C(Nc1cccnc1)Nc1cc(Cl)cc(Cl)c1 | active: 25.1 µM | 
42 | CCCSc1nnc2c(n1)OC(CC)N(C(C)=O)c1ccccc1-2 (configuration not stated) |  | inactive: -0.808%
43 | CCNC(=S)/C(=C(/[O-])c1ccc([N+](=O)[O-])cc1)[n+]1ccccc1 |  | inactive: -0.0037%
44 | CCOC(=O)c1ccc(NC(=O)CCc2nc(-c3ccc(Cl)cc3)no2)cc1 | inconclusive [inhibitor, single point] | 
45 | COc1cc(/C=N/N2CCN(C3c4ccccc4-c4ccccc43)CC2)ccc1O | inconclusive [activator, full curve, poor fit] | 
46 | CCOc1ccc(N2C(=O)CC(S/C(N)=N/N=C/c3cccs3)C2=O)cc1 (configuration not stated) | inconclusive [inhibitor, partial curve] | 
47 | Cc1ccc(Sc2ccc(/C=N/O)cc2[N+](=O)[O-])cc1 | inconclusive [inhibitor, partial curve] | 
